Among all 110,000 compounds or so, about 230 (0.21%) showed an effect of 50% or more. Some of the results follow.
Target: DPAP1 (Plasmodium falciparum, UniProt Q8IIJ9)
Assay: primary screen, percent inhibition; read by cleavage of a fluorogenic dipeptide substrate; higher = more effect of the substance
Parameters: species or system P. falciparum D10 trophozoite lysates; single well
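Also: 30 min substrate incubation versus DMSO and 10 µM JCP410 controls.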

DPAP1, sequence (Q8IIJ9 whole entry, looked up): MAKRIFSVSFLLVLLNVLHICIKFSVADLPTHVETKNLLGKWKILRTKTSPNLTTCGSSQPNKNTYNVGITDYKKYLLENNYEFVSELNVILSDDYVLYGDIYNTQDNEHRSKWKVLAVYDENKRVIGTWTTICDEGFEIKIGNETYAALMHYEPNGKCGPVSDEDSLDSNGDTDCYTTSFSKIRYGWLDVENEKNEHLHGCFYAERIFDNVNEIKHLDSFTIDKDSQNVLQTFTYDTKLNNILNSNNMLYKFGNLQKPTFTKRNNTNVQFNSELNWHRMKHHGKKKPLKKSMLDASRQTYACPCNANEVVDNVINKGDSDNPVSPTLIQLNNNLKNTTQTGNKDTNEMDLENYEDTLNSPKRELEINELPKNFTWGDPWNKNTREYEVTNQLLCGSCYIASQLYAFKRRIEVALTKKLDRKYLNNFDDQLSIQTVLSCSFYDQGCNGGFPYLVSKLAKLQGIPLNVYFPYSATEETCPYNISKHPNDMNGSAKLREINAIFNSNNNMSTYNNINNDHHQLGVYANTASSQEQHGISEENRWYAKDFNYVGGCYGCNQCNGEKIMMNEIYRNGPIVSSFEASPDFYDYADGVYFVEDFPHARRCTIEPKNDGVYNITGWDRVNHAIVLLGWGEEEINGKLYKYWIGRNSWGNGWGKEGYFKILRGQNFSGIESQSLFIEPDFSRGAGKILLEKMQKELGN

Compared with `CC(C)(C)CC(=O)Nc1ccccc1C(N)=O`, `Cc1cccc(NC(=O)CCCC(=O)Nc2cccc(C)c2C)c1C` is higher in “% Inhibition @ 10 uM” value: -5.31% for the first, 0.687% for the second.

First: Brc1ccc(-c2nc(N3CCNCC3)c3ccccc3n2)cc1
Second: c1cncc(Cc2nnc(N3CCC4(CC3)OCCO4)c3ccccc23)c1
The “% Inhibition @ 10 uM” value of the first is higher: -0.63% for the first, -8.42% for the second.

Going from `CC(=O)c1[nH]c(C)c(C(=O)NC2CCCCCCC2)c1C` to `COc1ccc(C(=O)NC2CCCCC2)cc1Br`, the “% Inhibition @ 10 uM” value falls from 5.53% to -2.19%.

Compared with `Cn1c(=O)c2c(ncn2CC(=O)Nc2ccc(F)cc2F)n(C)c1=O`, `CC(C)CCNC(=O)C(C)n1c2ccccc2c2cnn(C)c(=O)c21` (centres unmarked) is lower in “% Inhibition @ 10 uM” value: 2.13% for the first, -2% for the second.

Compared with `Cc1c(Cl)c(C(F)(F)F)nn1CC(=O)N1CCN([C@]23C[C@H]4C[C@H](C[C@H](C4)C2)C3)CC1`, `Cc1ccc(C)c(N2CCN(C3CC4CCC3C4)CC2)c1` (centres unmarked) is higher in “% Inhibition @ 10 uM” value: -1.37% for the first, 4.75% for the second.

First: C=C(C)[C@@H]1CC=C(CN2CCN(CC)CC2)CC1
Second: CCCS(=O)(=O)N1CCC(C(=O)N2CCOCC2)CC1
The “% Inhibition @ 10 uM” value of the first is lower: -1.78% for the first, 3.24% for the second.

First: COC(=O)C1=CN(CCc2ccc(F)cc2)C=C(C(=O)OC)C1c1cccs1
Second: O=C(Nc1ccc(S(=O)(=O)Nc2nccs2)cc1)c1ccccc1Cl
The “% Inhibition @ 10 uM” value of the first is higher: 1.81% for the first, -1.61% for the second.

Compared with `CCN(CC)C(=O)C(C)OC(=O)c1ccc(O)cc1` (centres unmarked), `COc1ccc(C(=O)NCCC(C)C)cc1` is lower in “% Inhibition @ 10 uM” value: 2.38% for the first, 0.331% for the second.

Going from `CC(=O)NS(=O)(=O)c1ccc(NC(=O)c2cc(-c3ccc(C)c(C)c3)nc3ccccc23)cc1` to `Cc1cccc(C(=O)Nc2cccc(-c3nc4cc(Cl)ccc4o3)c2)c1`, the “% Inhibition @ 10 uM” value falls from 9.95% to -2%.

Going from `O=C(NC1CCCCC1)C1CCC(CNc2c(N3CCCC3)c(=O)c2=O)CC1` (centres unmarked) to `CN(C1CCCCC1)S(=O)(=O)N1CCCC(C(=O)NC2CCN(Cc3ccccc3)CC2)C1` (centres unmarked), the “% Inhibition @ 10 uM” value falls from -2.17% to -7.21%.

Going from `CCCCCO/C(O)=C1\C(C)=NC2=C(C(=O)CC(C)(C)C2)C1c1ccc(Cl)c(Cl)c1` (centres unmarked) to `O=C(CSc1nc2ccccc2[nH]1)c1ccc(Cl)c(Cl)c1`, the “% Inhibition @ 10 uM” value falls from 1.38% to -5.5%.

Compared with `O=C1c2ccc(Br)cc2C(=O)N1c1ccc(Cl)c(Cl)c1`, `COc1cccc(C(=O)N2Cc3ccccc3-c3ccccc3C2=O)c1` is higher in “% Inhibition @ 10 uM” value: -3.13% for the first, 9.72% for the second.

Compared with `O=C(c1ccc(C#Cc2ccccc2)o1)N1CCN(c2ccccn2)CC1`, `O=C(c1ccc(C#CC2(O)CCCCC2)cc1)N1CCN(c2ccccc2F)CC1` is higher in “% Inhibition @ 10 uM” value: -5.69% for the first, -4.93% for the second.

First: COc1ccc(C(=O)NCc2nnc(SCC(=O)N3CCCCC3)o2)cc1OC
Second: COc1cc(C(CC(=O)N2CCCCCC2)N2Cc3ccccc3C2=O)cc(OC)c1OC (centres unmarked)
The “% Inhibition @ 10 uM” value of the first is lower: -3.39% for the first, 0.796% for the second.

First: C=CCNC(=O)C1CC(c2cc(OC)ccc2OC)=NO1 (centres unmarked)
Second: COc1ccc(NC(=O)COc2cccc(C)c2)cc1OC
The “% Inhibition @ 10 uM” value of the first is higher: 2.85% for the first, -1.52% for the second.

Going from `O=C(C[n+]1ccccc1-c1ccccn1)c1ccc(Cl)cc1` to `Cc1ccc(OCC(=O)N(Cc2ccccc2)c2ccccn2)cc1`, the “% Inhibition @ 10 uM” value falls from 3.31% to -4.95%.

Going from `O=c1cccc2n1C[C@H]1C[C@@H]2CN(Cc2cc(F)ccc2F)C1` to `Cc1cccc(-c2noc(CNC(=O)c3ccccc3F)n2)c1`, the “% Inhibition @ 10 uM” value falls from 4.98% to -1.22%.

First: Cc1ccc(/C=C2\CS/C(=C\c3ccc(C)o3)C2=O)o1
Second: CCCc1ccc(-c2nc(N)sc2C)cc1
The “% Inhibition @ 10 uM” value of the first is higher: 2.93% for the first, 0.331% for the second.

Compared with `CSc1nc(O)nnc1SCc1ccccc1`, `CCSc1nnc(NC(=O)c2nc(S(=O)(=O)Cc3ccccc3)ncc2Cl)s1` is lower in “% Inhibition @ 10 uM” value: 4.15% for the first, -0.946% for the second.

Going from `Cc1onc(-c2ccccc2)c1C(=O)Nc1nnc(N(C)Cc2ccccc2)s1` to `CSc1nc(Oc2ccc(NC(C)=O)cc2)cc(-n2ncc(C#N)c2N)n1`, the “% Inhibition @ 10 uM” value rises from -3.47% to -1.06%.

Compared with `Cc1ccccc1Cn1c(C)c(CNC2CCCCC2)c(C(=O)O)c1C`, `CCc1nn(CC(=O)N(C)C2CCCCC2)c(=O)c2cc3cc(C)ccc3n12` is higher in “% Inhibition @ 10 uM” value: -9.31% for the first, 7.53% for the second.

Compared with `Nc1ccc2nc(SCC(=O)NCc3ccco3)sc2c1`, `CCc1cc2c(cc3c(=O)n(CC(=O)NCCCN4CCOCC4)ncn32)s1` is lower in “% Inhibition @ 10 uM” value: 2.85% for the first, 1.68% for the second.

First: CS(=O)(=O)N1CCC(C(=O)Nc2ccc(F)cc2)CC1
Second: CC(C)(C)c1ccc(C(=O)Nc2ccc(CC#N)cc2)cc1
The “% Inhibition @ 10 uM” value of the first is higher: 1.71% for the first, -0.891% for the second.

First: CC/N=c1/scc(-c2ccc(OCC)cc2)n1CC
Second: COc1ccc(Cc2cnc(O)nc2O)cc1
The “% Inhibition @ 10 uM” value of the first is higher: 2.73% for the first, -5.62% for the second.

Compared with `COc1ccc(C2C3=C(O)CCCC3=Nc3nc(S)nc(N)c32)cc1` (centres unmarked), `CC1(C)Cc2c(sc3ncn4nc(-c5ccccn5)nc4c23)C(C)(C)N1` is higher in “% Inhibition @ 10 uM” value: -2.07% for the first, 0.189% for the second.

From article PMC6919601, “Identification of Plasmodium dipeptidyl aminopeptidase allosteric inhibitors by high throughput screening” (PLoS ONE, 2019)
